# The list shows a part of the results.
# Experiments:
# Assay in all cases: glycan array binding signal (z-score within array); higher = stronger binding
# Conditions in all cases: glycan notation: IUPAC condensed, linker removed
# Neu5Ac(a2-8)Neu5Ac = target: Neu5Ac(a2-8)Neu5Ac
# Outline: (§1)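 Glycan array binding is given as a within-array Z-score, which can be read as non-binding when negative. The arrays, 3228 of them, came from the Consortium for Functional Glycomics database and were retained only where the protein sequence was available. Z-scores were averaged across arrays of the same protein sequence at different concentrations or buffers and across linkers.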
# [1] = target: Neu5Ac(a2-8)Neu5Ac(a2-3)Gal(b1-3)GalNAc(b1-4)[Neu5Ac(a2-3)]Gal(b1-4)Glc
# Outline: as §1
# [2] = target: Neu5Ac(a2-8)Neu5Ac(a2-3)Gal(b1-3)GalNAc(b1-4)[Neu5Ac(a2-8)Neu5Ac(a2-3)]Gal(b1-4)Glc
# Outline: as §1
# [3] = target: Neu5Ac(a2-8)Neu5Ac(a2-3)Gal(b1-4)Glc
# Outline: as §1
# [4] = target: Neu5Ac(a2-8)Neu5Ac(a2-3)Gal(b1-4)GlcNAc
# Outline: as §1
# [5] = target: Neu5Ac(a2-8)Neu5Ac(a2-3)[Gal(b1-3)GalNAc(b1-4)]Gal(b1-4)Glc
# Outline: as §1
# [6] = target: Neu5Ac(a2-8)Neu5Ac(a2-3)[GalNAc(b1-4)]Gal(b1-4)Glc
# Outline: as §1
# [7] = target: Neu5Ac(a2-8)Neu5Ac(a2-8)Neu5Ac
# Outline: as §1
# [8] = target: Neu5Ac(a2-8)Neu5Ac(a2-8)Neu5Ac(a2-3)Gal(b1-4)Glc
# Outline: as §1
# [9] = target: Neu5Ac(a2-8)Neu5Ac(a2-8)Neu5Ac(a2-3)[Gal(b1-3)GalNAc(b1-4)]Gal(b1-4)Glc
# Outline: as §1
# [10] = target: Neu5Ac(a2-8)Neu5Ac(a2-8)Neu5Ac(a2-3)[GalNAc(b1-4)]Gal(b1-4)Glc
# Outline: as §1
# [11] = target: Neu5Ac(a2-8)Neu5Ac(a2-8)Neu5Ac(a2-8)Neu5Ac(a2-3)[GalNAc(b1-4)]Gal(b1-4)Glc
# Outline: as §1
# [12] = target: Neu5Ac(a2-8)Neu5Gc(a2-3)Gal(b1-4)GlcNAc
# Outline: as §1
# [13] = target: Neu5Ac(b2-6)Gal(b1-4)GlcNAc
# Outline: as §1
# Neu5Ac(b2-6)GalNAc = target: Neu5Ac(b2-6)GalNAc
# Outline: as §1
# [14] = target: Neu5Ac9Ac(a2-3)Gal(b1-3)GlcNAc
# Outline: as §1
# [15] = target: Neu5Ac9Ac(a2-3)Gal(b1-4)GlcNAc
# Outline: as §1
# [16] = target: Neu5Ac9Ac(a2-6)Gal(b1-4)GlcNAc
# Outline: as §1
# [17] = target: Neu5Gc(a2-3)Gal(b1-3)GlcNAc
# Outline: as §1
# [18] = target: Neu5Gc(a2-3)Gal(b1-3)[Fuc(a1-4)]GlcNAc
# Outline: as §1
# Neu5Gc(a2-3)Gal(b1-4)Glc = target: Neu5Gc(a2-3)Gal(b1-4)Glc
# Outline: as §1
# [19] = target: Neu5Gc(a2-3)Gal(b1-4)GlcNAc
# Outline: as §1
# [20] = target: Neu5Gc(a2-3)Gal(b1-4)GlcNAc(b1-3)Gal(b1-4)GlcNAc(b1-2)Man(a1-3)[Neu5Gc(a2-3)Gal(b1-4)GlcNAc(b1-3)Gal(b1-4)GlcNAc(b1-2)Man(a1-6)]Man(b1-4)GlcNAc(b1-4)GlcNAc
# Outline: as §1
# [21] = target: Neu5Gc(a2-3)Gal(b1-4)[Fuc(a1-3)]GlcNAc
# Outline: as §1
# [22] = target: Neu5Gc(a2-6)Gal(b1-4)GlcNAc
# Outline: as §1
# Neu5Gc(a2-6)GalNAc = target: Neu5Gc(a2-6)GalNAc
# Outline: as §1
# [23] = target: Neu5Gc(a2-8)Neu5Ac(a2-3)Gal(b1-4)GlcNAc
# Outline: as §1
# [24] = target: Neu5Gc(a2-8)Neu5Gc(a2-3)Gal(b1-4)GlcNAc
# Outline: as §1
# [25] = target: Neu5Gc(a2-8)Neu5Gc(a2-3)Gal(b1-4)GlcNAc(b1-3)Gal(b1-4)GlcNAc
# Outline: as §1
# [26] = target: Neu5Gc(a2-8)Neu5Gc(a2-6)Gal(b1-4)GlcNAc
# Outline: as §1
# [27] = target: Neu5Gc(b2-6)Gal(b1-4)GlcNAc
# Outline: as §1
binder,measurement,setting,value
PV12658A-bvu-496-32-496 (Bacteroides vulgatus) (protein) DLDGAITTPAAVELALNGIYYSLPGNGFNVIFPTVSGSFKAGTMWRQEIVSAGNAVYYSERMLPTLSFSDATEWDADYAVIKNANFLETACNRMSDGEFSGNRRAEVLGEIAYLRALAYFNILVRYCEFWDMNSEYGVVMRNEAPSVSNALKARSSVADSYQYILDQLEIAIEKAPDWKKLSQASKEAAKALKARVLLYAGKYTEAVAAVNDAIDTNSPLPEANYGDVFDKFSTTKEILFARVFDQKDATNTSTRQQCYGNSPTKKQGYWGPTNEYVELVGDDPRADAIFSKVDSLMDSRSSAVAYNLKSVKKLLNDANDMPVIFSRVSELYLIKAEALYRSGASISEAYAPIRKLRERAGAEIILPANNEELETAIFNEWMLELSFENWHEWFAMIRFAGYTEKPDFTRLLALNKTLREALEKEYEKSEAQGDNYYQRIIDRRIDAIPSSEISSNLECKQNPGY,glycan array binding signal (z-score),Neu5Ac(a2-8)Neu5Ac,-0.175
same,glycan array binding signal (z-score),[1],-0.019
same,glycan array binding signal (z-score),[2],-0.436
same,glycan array binding signal (z-score),[3],-0.571
same,glycan array binding signal (z-score),[4],-0.152
same,glycan array binding signal (z-score),[5],-0.141
same,glycan array binding signal (z-score),[6],-0.606
same,glycan array binding signal (z-score),[7],-0.19
same,glycan array binding signal (z-score),[8],-0.363
same,glycan array binding signal (z-score),[9],0.133
same,glycan array binding signal (z-score),[10],-0.424
same,glycan array binding signal (z-score),[11],0.483
same,glycan array binding signal (z-score),[12],5.59
same,glycan array binding signal (z-score),[13],0.17
same,glycan array binding signal (z-score),Neu5Ac(b2-6)GalNAc,-0.349
same,glycan array binding signal (z-score),[14],-0.021
same,glycan array binding signal (z-score),[15],-0.15
same,glycan array binding signal (z-score),[16],-0.17
same,glycan array binding signal (z-score),[17],-0.16
same,glycan array binding signal (z-score),[18],-0.502
same,glycan array binding signal (z-score),Neu5Gc(a2-3)Gal(b1-4)Glc,-0.122
same,glycan array binding signal (z-score),[19],-0.255
same,glycan array binding signal (z-score),[20],-0.044
same,glycan array binding signal (z-score),[21],-0.405
same,glycan array binding signal (z-score),[22],-0.47
same,glycan array binding signal (z-score),Neu5Gc(a2-6)GalNAc,-0.197
same,glycan array binding signal (z-score),[23],-0.259
same,glycan array binding signal (z-score),[24],-0.398
same,glycan array binding signal (z-score),[25],-0.303
same,glycan array binding signal (z-score),[26],-0.35
same,glycan array binding signal (z-score),[27],-0.152

# Source: the supplement of paper PMC8728848
